Results: the supplement of paper PMC8512760
Counter-ions that a name gives are not always drawn. This is one part of the list. Single values are uncertain, as repeats are few or missing.

tested on: SUM-149; assay: cell viability relative to vehicle (% of vehicle); basal-like triple-negative breast cancer lines; higher = less cytotoxic; conditions: 10 µM; 72 h
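Further: stably firefly luciferase-GFP labeled cells in 96-well plates, viability read as luciferase photon flux after d-luciferin addition, treated wells normalized to vehicle wells, single-dose high-throughput screen.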

Structure (SMILES)	cell viability
CN1CCN(c2ccc(C(=O)/N=c3\[nH][nH]c4ccc(Cc5cc(F)cc(F)c5)cc34)c(NC3CCOCC3)c2)CC1 [Entrectinib]	37.1
Cc1cccc(C)c1OCC(C)N.Cl (stereo not drawn) [Mexiletine HCl]	89.1
CCc1cccc2c3c([nH]c12)C(CC)(CC(=O)O)OCC3 (stereo not drawn) [Etodolac]	106
Cc1cn(-c2cc(/N=C(\O)c3ccc(C)c(Nc4nccc(-c5cnccn5)n4)c3)cc(C(F)(F)F)c2)cn1 [Radotinib(IY-5511)]	55.8
CC(=O)SCC(Cc1ccccc1)C(=O)NCC(=O)OCc1ccccc1 (stereo not drawn) [Racecadotril]	104
CC(C)=CCCC(C)=CCCC(C)=CCSc1ccccc1C(=O)O [Salirasib]	155
COC(=O)C=CC(=O)OC [Dimethyl Fumarate]	120
CCS(=O)(=O)CCn1c([N+](=O)[O-])cnc1C [Tinidazole]	106
Cc1cc(-n2c(=O)[nH]c(=O)n(C)c2=O)ccc1Oc1ccc(SC(F)(F)F)cc1 [Toltrazuril]	92.1
CCCCCCCCCCCC1=C(O)C(=O)C=C(O)C1=O [Embelin]	94.6
CC(C)C(=O)Nc1ccc([N+](=O)[O-])c(C(F)(F)F)c1 [Flutamide]	119
CC(C)n1c(C=CC(O)CC(O)CC(=O)[O-])c(-c2ccc(F)cc2)c2ccccc21.[Na+] (stereo not drawn) [Fluvastatin Sodium]	84.2
O=C(C1CCCCC1)N1CC(=O)N2CCc3ccccc3C2C1 (stereo not drawn) [Praziquantel]	107
Cn1cnc2c(F)c(Nc3ccc(Br)cc3F)c(C(=O)NOCCO)cc21	99.1
CC1OC(OCC2OC(Oc3c(-c4ccc(O)c(O)c4)oc4cc(O)cc(O)c4c3=O)C(O)C(O)C2O)C(O)C(O)C1O (stereo not drawn) [Rutin]	119
Cl.O=C1OC(CN2CCOCC2)CN1N=Cc1ccc([N+](=O)[O-])o1 (stereo not drawn) [Furaltadone HCl]	103
COc1cc2nccc(Oc3ccc(NC(=O)NC4CC4)c(Cl)c3)c2cc1C(N)=O [Lenvatinib (E7080)]	87.8
O=C(O)c1cccnc1 [Nicotinic Acid]	105
Nc1ccn(C2CCC(CO)O2)c(=O)n1 (stereo not drawn) [Zalcitabine]	93.6
CCCNC(=O)NS(=O)(=O)c1ccc(Cl)cc1 [Chlorpropamide]	85.1
Nc1ccn(CC(CO)OCP(=O)(O)O)c(=O)n1.O.O (stereo not drawn) [Cidofovir dihydrate]	111
CCC1OC(=O)C(C)C(OC2CC(C)(OC)C(O)C(C)O2)C(C)C(OC2OC(C)CC(N(C)C)C2O)C(C)(O)CC(C)C(=O)C(C)C(O)C1(C)O (stereo not drawn) [Erythromycin]	103
Nc1nc(N)nc(-c2cc(Cl)ccc2Cl)n1 [Irsogladine]	103
Cc1c(O)c(=O)ccn1C [Deferiprone]	109
CS(=O)(=O)O.Cc1ccc(N(CC2=NCCN2)c2cccc(O)c2)cc1 [Phentolamine Mesylate]	109
CC(=O)C1CCC2C3CCC4=CC(=O)CCC4(C)C3CCC12C (stereo not drawn) [Progesterone]	114
CCc1c2c(nc3ccc(OC(=O)N4CCC(N5CCCCC5)CC4)cc13)-c1cc3c(c(=O)n1C2)COC(=O)[C@]3(O)CC [Irinotecan HCl Trihydrate]	114
CC(C)COc1ccc(CNC(=O)N(Cc2ccc(F)cc2)C2CCN(C)CC2)cc1 [Pimavanserin]	52.2
